This passage reports binding signal results from paper PMC7819943, “Rice protein-binding microarrays: a tool to detect cis-acting elements near promoter regions in rice”.

Some of the results follow.

The experiment has as its target T1, OsWOX13 (Oryza sativa, UniProt Q5QMM3 1-267).
T1 sequence: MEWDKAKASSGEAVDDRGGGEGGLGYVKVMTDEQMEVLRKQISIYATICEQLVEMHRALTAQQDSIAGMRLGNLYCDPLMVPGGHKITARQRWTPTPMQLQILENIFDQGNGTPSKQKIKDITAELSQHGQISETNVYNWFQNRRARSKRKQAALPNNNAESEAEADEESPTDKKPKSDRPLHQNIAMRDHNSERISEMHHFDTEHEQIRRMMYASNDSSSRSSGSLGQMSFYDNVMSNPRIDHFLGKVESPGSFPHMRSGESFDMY
The experiment can be described thus: protein-binding microarray (RPBM); PBS, 2% BSA, 51.3 ng/ul salmon testes DNA, 50 uM zinc acetate, 200 nM TF, 25 C, 1 h; high values mean tight binding. To be noted: protein: recombinant; tags: N-terminal polyhistidine and DsRed monomer fusion (pET32a); label: CyDye5-dUTP incorporated in the synthesized complementary strand; 3' TTTTT single-stranded linker to array surface; dsDNA, one strand shown. Put shortly:
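Binding signal here means per-feature fluorescence intensity in arbitrary units. The values were read on an Axon 4000B scanner after a custom Agilent array, double-stranded by primer extension with Cy5-dUTP, was incubated with 200 nM protein at 25 °C for 1 h in PBS with 2% BSA, salmon testes DNA and 50 µM zinc acetate, then washed. The proteins were transcription factors with an N-terminal polyhistidine tag and DsRed, expressed in E. coli BL21-CodonPlus and purified on Ni–NTA.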
For the sequence “ATACTACTTCACATCAATTAAATAAGCTGTGTATACTTGTCGGAGTCACCTAGTGCAG”, the binding signal is 3880 fluorescence intensity (a.u.).

For the sequence “AGTTAATTAAGGAAGTAAGAAGAAGAAATACCAATAAAGACGGAGTCACCTAGTGCAG”, the binding signal is 4470 fluorescence intensity (a.u.).

Regarding “GTCACAAAATAAATTTACTTTCACCCATCCCACAAGCACCCGGAGTCACCTAGTGCAG”, the binding signal is 5090 fluorescence intensity (a.u.).

As to “CCATCAATTATTACAAACTCATATGAGTTTAACATCATGACGGAGTCACCTAGTGCAG”, the binding signal was 27500 fluorescence intensity (a.u.).

Turning to “TCATATAATAAATAAACGTGCAATAATTGAGGAGGAAGCACGGAGTCACCTAGTGCAG”, the binding signal was 4160 fluorescence intensity (a.u.).

With “TGCATGGATTTGATTTTGTGACTGAAGGACCAGATTGCTGCGGAGTCACCTAGTGCAG”, the binding signal is 10400 fluorescence intensity (a.u.).

On to “GATGCTAACATAAATTAAGATAAAATTTGTATCTTAATGGCGGAGTCACCTAGTGCAG”, for which the binding signal is 19300 fluorescence intensity (a.u.).

As to “ATTATGTAAATTTTGACTAATGTTTAGTCGAAGTGCAAGTCGGAGTCACCTAGTGCAG”, the binding signal was 8100 fluorescence intensity (a.u.).

For “CTATGATTAGTCATAAGTGTTACAGTAACCCACATGTGCTCGGAGTCACCTAGTGCAG”, the binding signal is 25700 fluorescence intensity (a.u.).

With “GTTTAGATTTATTGAGTCGCATGCATCAACCAGTTCAACTCGGAGTCACCTAGTGCAG”, the binding signal is 5190 fluorescence intensity (a.u.).

Regarding “GGACAGATTAACTATCACTTAATTTCAGGTTTCCATGTATCGGAGTCACCTAGTGCAG”, the binding signal is 22700 fluorescence intensity (a.u.).

In the case of “GTTGATGGAATTTAAGCATATTGATCTAATCTTATTTTAACGGAGTCACCTAGTGCAG”, the binding signal is 5380 fluorescence intensity (a.u.).

As to “AAAGATTTGATATGATAAGAACAAGCAGCCCTTCTCAAAACGGAGTCACCTAGTGCAG”, the binding signal was 3690 fluorescence intensity (a.u.).

For “CCAAATTCATTAAAATTAACAATAACAATTATATTTGTTTCGGAGTCACCTAGTGCAG”, the binding signal was 10900 fluorescence intensity (a.u.).

Regarding “CAACATATGATTATTTCACGTTAAGGGAGGCATGTTATTGCGGAGTCACCTAGTGCAG”, the binding signal is 7360 fluorescence intensity (a.u.).

On to “GATCAATTTAATTTAGGAAGACCTTATAAAACTTAGGAGTCGGAGTCACCTAGTGCAG”, for which the binding signal is 13700 fluorescence intensity (a.u.).

As to “ATTGGCTAGATTGGAAGCAAGAGAAGCTGCAGCGAAGGCACGGAGTCACCTAGTGCAG”, the binding signal was 7860 fluorescence intensity (a.u.).

As for “TTTGCAATTACTGTTGTGTGGTTTCTATTCACAACGTACACGGAGTCACCTAGTGCAG”, the binding signal is 3930 fluorescence intensity (a.u.).

For the sequence “GCTATAAAATTGACTATAATTGATTTGGAGCCGGTAGTTGCGGAGTCACCTAGTGCAG”, the binding signal is 63600 fluorescence intensity (a.u.).

For “ATTATAGATTAAACTAATAATAACATCATTCCCATAGCGCCGGAGTCACCTAGTGCAG”, the binding signal is 12300 fluorescence intensity (a.u.).

On to “GTTCAATTAATTCCCACCGTTGGTGATCCATGTTTTATATCGGAGTCACCTAGTGCAG”, for which the binding signal was 11900 fluorescence intensity (a.u.).

For the sequence “AAATCACATTCTAAATTACAGTATTTTAGAACGGATTGGACGGAGTCACCTAGTGCAG”, the binding signal was 3530 fluorescence intensity (a.u.).

As for “TCTGAGTGGACGATGATGGATGGCTAGTTCTGACTAGACGCGGAGTCACCTAGTGCAG”, the binding signal was 13300 fluorescence intensity (a.u.).

With “CTCCGATTAATGTGGAAATTTCTAACCTCTACAGCGAACGCGGAGTCACCTAGTGCAG”, the binding signal was 6190 fluorescence intensity (a.u.).

“CCTCGTGCGCTTCATCAATTAATTAACTCGTTAATTTTCACGGAGTCACCTAGTGCAG”: the binding signal was 16100 fluorescence intensity (a.u.).

As for “CAACAAGCTAATTAGCATGGCGAATTAATAATTCGCAACCCGGAGTCACCTAGTGCAG”, the binding signal was 15400 fluorescence intensity (a.u.).

In the case of “TTACTGATGGTCTTGATGATTCCTTACAAGATTTTGACTTCGGAGTCACCTAGTGCAG”, the binding signal was 4020 fluorescence intensity (a.u.).

With “AATGACAGGTAGAGTACATCAGTGCAGTTATATATATGGACGGAGTCACCTAGTGCAG”, the binding signal was 8670 fluorescence intensity (a.u.).

Turning to “ATGATGATGATATACACGCCAAATTGAATTAGAAACTGATCGGAGTCACCTAGTGCAG”, the binding signal is 6800 fluorescence intensity (a.u.).

As for “GAACATAATTAATTTCTTTCAATTTGGTCTAGCAGAATTCCGGAGTCACCTAGTGCAG”, the binding signal was 31500 fluorescence intensity (a.u.).

In the case of “TCTTCCTCAGATACTGATTGCCATTGTTTTGCAGGTCTCTCGGAGTCACCTAGTGCAG”, the binding signal is 4830 fluorescence intensity (a.u.).

Regarding “ATGCACAGCAATTAACAGCCTAACAGAAGACGCGCGTCCGCGGAGTCACCTAGTGCAG”, the binding signal was 3270 fluorescence intensity (a.u.).

Consider “TTACAATGATTTCTAGTTTAGAATCACAACTGCAATTTCACGGAGTCACCTAGTGCAG”, for which the binding signal is 10200 fluorescence intensity (a.u.).

“TTTAACATATCTTAACGGAACAAATATAAATTGTGTTATGCGGAGTCACCTAGTGCAG”: the binding signal was 5100 fluorescence intensity (a.u.).

“ACTAATAATGAAAATTTCCACACCCTTGCTTTTCTAATTTCGGAGTCACCTAGTGCAG”: the binding signal is 4470 fluorescence intensity (a.u.).

With “ATTAGTTGGATTGATTCAAACAAAGAGGTGATAATAATTGCGGAGTCACCTAGTGCAG”, the binding signal was 11900 fluorescence intensity (a.u.).

For “GTTCTTCTTTTACTAATAGATTGAAAAGAAAACTATACGTCGGAGTCACCTAGTGCAG”, the binding signal is 13500 fluorescence intensity (a.u.).

As to “TTCTGGTAAATCAATTATCGCTGACTTTTAGCTGCACCAGCGGAGTCACCTAGTGCAG”, the binding signal was 22400 fluorescence intensity (a.u.).

As for “GACATAAATAGATAGTCCCTTCGACTATTTGAGCGATGGTCGGAGTCACCTAGTGCAG”, the binding signal is 5370 fluorescence intensity (a.u.).

Consider “TCCAAACTGATTTGGTTTGTGCTCACAAACCATTCATACACGGAGTCACCTAGTGCAG”, for which the binding signal was 13300 fluorescence intensity (a.u.).

Regarding “CTTAATTTAGTAGTTCAGGCAATAGAATATGAGATCTTTTCGGAGTCACCTAGTGCAG”, the binding signal is 6100 fluorescence intensity (a.u.).

Turning to “CTTTTAGTAAATTTATAAACCTAAAGTTTACACATCTAAACGGAGTCACCTAGTGCAG”, the binding signal was 4660 fluorescence intensity (a.u.).
